Measured values: paper PMC4336329 (PLoS ONE, 2015)
In all, about 310,000 compounds went through this assay and about 2,200 (0.71%) showed an effect of 50% or more. Effects have a minus sign here. Some of the results follow.

These compounds were tested against human ether-à-go-go-related gene (hERG) potassium channel (human, UniProt Q12809) (assay: primary screen, population patch clamp on CHO cells stably expressing hERG).
Sequence of human ether-à-go-go-related gene (hERG) potassium channel (Q12809 whole entry, looked up): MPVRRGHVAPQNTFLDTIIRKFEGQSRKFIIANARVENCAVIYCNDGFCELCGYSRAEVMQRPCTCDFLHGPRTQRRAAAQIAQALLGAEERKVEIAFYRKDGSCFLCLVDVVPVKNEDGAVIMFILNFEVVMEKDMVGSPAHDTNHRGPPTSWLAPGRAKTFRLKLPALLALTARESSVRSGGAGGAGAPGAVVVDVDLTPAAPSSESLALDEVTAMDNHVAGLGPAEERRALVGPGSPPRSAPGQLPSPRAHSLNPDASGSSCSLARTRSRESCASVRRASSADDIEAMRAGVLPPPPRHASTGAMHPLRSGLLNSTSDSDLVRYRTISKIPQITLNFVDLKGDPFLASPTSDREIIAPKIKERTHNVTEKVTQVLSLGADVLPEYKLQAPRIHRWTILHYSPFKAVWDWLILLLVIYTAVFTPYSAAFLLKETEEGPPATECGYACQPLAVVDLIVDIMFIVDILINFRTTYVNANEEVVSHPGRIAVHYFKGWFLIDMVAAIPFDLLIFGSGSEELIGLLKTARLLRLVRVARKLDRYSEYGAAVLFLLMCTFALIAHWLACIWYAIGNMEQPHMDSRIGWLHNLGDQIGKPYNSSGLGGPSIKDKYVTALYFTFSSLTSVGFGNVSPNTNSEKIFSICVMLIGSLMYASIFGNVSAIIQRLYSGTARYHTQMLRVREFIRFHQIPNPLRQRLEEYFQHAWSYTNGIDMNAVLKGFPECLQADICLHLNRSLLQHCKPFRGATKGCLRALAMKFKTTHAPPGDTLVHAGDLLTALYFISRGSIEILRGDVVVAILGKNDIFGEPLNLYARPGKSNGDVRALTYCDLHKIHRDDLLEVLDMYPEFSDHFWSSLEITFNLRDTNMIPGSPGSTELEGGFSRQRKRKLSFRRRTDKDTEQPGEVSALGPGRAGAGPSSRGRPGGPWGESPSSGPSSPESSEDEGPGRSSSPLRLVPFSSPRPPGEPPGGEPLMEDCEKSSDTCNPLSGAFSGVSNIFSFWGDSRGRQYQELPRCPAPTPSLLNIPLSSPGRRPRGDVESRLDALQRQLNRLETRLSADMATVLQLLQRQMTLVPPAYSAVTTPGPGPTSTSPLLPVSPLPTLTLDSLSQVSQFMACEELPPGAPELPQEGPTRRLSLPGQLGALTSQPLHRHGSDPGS

| Structure (SMILES) | hERG current change (%, negative = inhibition) at 1uM [%] |
| --- | --- |
| CC1CC(Nc2ccccc2)c2ccccc2N1C(=O)c1ccncc1 (centres unmarked) | 5.72 |
| CCOc1ccccc1NC(=O)CSc1nc2cc(O)ccc2c(=O)n1-c1ccc(OC)c(OC)c1 | 16.9 |
| O=C(CSc1nccc(=O)[nH]1)Nc1ccc2c(c1)OCCO2 | 29.9 |
| CCc1nc2scc(-c3cccs3)c2c(=O)o1 | 5.7 |
| CN(CC(=O)Nc1cccc(S(=O)(=O)N2CCCC2)c1)CC(=O)Nc1ccc(Cl)c(C(F)(F)F)c1 | -7.97 |
| CCOC(=O)C1CCN(S(=O)(=O)c2ccc3c(c2)CCN3C(=O)C2CCC2)CC1 | 13.4 |
| COc1ccccc1OCC(O)Cn1c(Br)nc2c1c(=O)[nH]c(=O)n2C (centres unmarked) | 4.9 |
| Cc1cc(N2CCCC(C(=O)Nc3cccc4ccccc34)C2)n2ncnc2n1 (centres unmarked) | -4.76 |
| CCOC(=O)C1CCN(C(C(=O)Nc2ccc3c(c2)OCCO3)c2ccccc2)CC1 (centres unmarked) | 3.81 |
| Cc1ccc(-c2nc3cccnc3o2)cc1NC(=O)COc1ccc(C(C)(C)C)cc1 | 7.31 |
| COc1ccc(-n2c(O)c(C=NCCN(C)C)c(=O)[nH]c2=O)cc1 | 6.45 |
| O=c1cc(CSc2ccc(S(=O)(=O)N3CCCCC3)cn2)nc2sccn12 | 2.89 |
| NS(=O)(=O)c1ccc(NC(=O)COC(=O)C2CCCCC2)cc1 | 4.34 |
| COc1ccc(OC)c(-n2c(SC)nnc2-c2c[nH]c3ccccc23)c1 | 3.38 |
| COc1ccc(C(=O)N/C(=C/c2cccnc2)C(=O)N2CCN(C)CC2)cc1OC | 2.99 |
| CN(Cc1nc2ccccc2c(=O)[nH]1)Cc1cc(=O)oc2ccc3ccccc3c12 | -8.72 |
| Cc1ccc(-c2cn(CCN)c(-c3ccc(Cl)nc3)n2)cc1 | 7.05 |
| Cc1ccc(NC(=O)Cn2c3ccc(F)cc3c3nc4n(c(=O)c32)CCS4)cc1F | 11.7 |
| CCOC(=O)C1CCN(C(=O)c2ccccc2NS(=O)(=O)c2ccc(F)cc2)CC1 | 1.41 |
| COc1cc(OC)c(C(=O)OC(C)C(=O)Nc2cccc(C(F)(F)F)c2)cc1OC (centres unmarked) | 9.78 |
| O=C(COC(=O)c1c[nH]c2ccccc12)NC1CCCCC1 | 5.28 |
| CCN1C(=O)C2(C(C(=O)c3ccc(C)o3)=C(O)C(=O)N2CCCN2CCOCC2)c2ccccc21 (centres unmarked) | -4.6 |

| Structure (SMILES) | hERG current change (%, negative = inhibition) at 1uM [%] |
| --- | --- |
| COc1cc(/C=N/NC(=O)C(=O)N2CCCCCC2)ccc1O | 16.7 |
| O=C(COC(=O)/C=C/c1ccccc1)Nc1ccccc1Br | -16.8 |
| CN1CCCN(C(=O)CSc2ccccc2)CC1 | 7.6 |
| COc1cc2[nH]c(=O)n(CCC(=O)NCc3cccnc3)c(=O)c2cc1OC | 6.67 |
| NNc1nnc2c3cc(F)ccc3n(Cc3ccccc3)c2n1 | 2.58 |
| Cn1nc(-c2ccc(Cl)cc2)c2cc(C(=O)N3CCCC3)sc21 | 10.9 |
| O=C(CSc1nnc(-c2ccc(C(F)(F)F)cn2)s1)c1ccc(Cl)cc1 | 12.4 |
| CCc1ccc(NC(=O)N(CCOC)C2CCN(C(C)=O)CC2)cc1 | -3.67 |
| O=c1c2ccccc2nc(/C=C/c2ccc(O)cc2)n1-c1cccc(O)c1 | 7.19 |
| C[N+]1(CC(=O)Nc2ccc(F)cc2)CCN(C(=O)c2ccco2)CC1.[Cl-] | 18.3 |
| CCN(CC(=O)Nc1c(F)cccc1F)C(=O)c1ccc(-c2ccccc2)cc1 | 0.769 |
| COc1ccc(-n2nnc3c(=O)n(CC(=O)N4CCC(Cc5ccccc5)CC4)cnc32)cc1 | 15.4 |
| COC(=O)c1cnc(Oc2ccc(NC(=O)NC(=O)c3c(F)cccc3F)cc2)cc1C(F)(F)F | 10.6 |
| O=[N+]([O-])c1ccc(O)c2ncccc12 | 15.7 |
| CC(OC(=O)c1cc(S(=O)(=O)N2CCOCC2)ccc1F)C(=O)NCc1ccc2c(c1)OCO2 (centres unmarked) | 6.56 |
| Cc1ccc(C(=O)N2CC(C(=O)O)C2)cc1 | 1.17 |
| CC(C)CCNC(=O)[C@@H](NC(=O)c1c(F)cccc1F)C(C)C | 8.14 |
| COC(=O)N/N=C\c1ccc(OC/C=C/c2ccccc2)c(OC)c1 | 8.91 |
| O=C(NCc1ccco1)c1ccc(-c2ccccc2Cl)o1 | 5.85 |
| Cc1ccc(S(=O)(=O)NCCSc2nnc(N)s2)cc1 | 3.96 |
| COc1ccc(-n2c(C)cc(-c3csc(N)n3)c2C)cc1 | -2.31 |
| CCCc1ccc2oc(C(=O)N3CCC(O)CC3)c(C)c2c1 | 12 |

| Structure (SMILES) | hERG current change (%, negative = inhibition) at 1uM [%] |
| --- | --- |
| COc1ccc(C(=O)C(O)C(c2ccc(C)cc2)N2CCOCC2)cc1OC (centres unmarked) | 10.2 |
| N#C/C(=N\Nc1cccc(Cl)c1)C(=O)c1ccccc1 | 0.942 |
| O=C(NN1CCOCC1)c1cccc2ccccc12 | 9.51 |
| CCN(CC(=O)NCc1cccs1)C(=O)COc1ccc(C(C)=O)cc1 | -5.19 |
| Nc1c(N=Nc2cccc(Cl)c2)c(=O)[nH]n1-c1ccccc1 | 1.75 |
| COc1ccc(C(=O)Nc2c(N)nc(SCC(=O)N3CCCCCC3)[nH]c2=O)cc1OC | 10 |
| CSc1ccc(CN(C)C(=O)COc2ccc(C(=O)c3ccccc3)cc2)cc1 | 14.2 |
| Cn1cc(S(=O)(=O)Nc2ccc(F)c(Cl)c2)c(=O)n(C)c1=O | 9.97 |
| CC(=O)Nc1ccc(/C=N/NC(=O)c2cccs2)cc1 | 9.84 |
| CNC(=S)/N=C(\Nc1ccc(C)cc1)c1ccccc1 | 12.4 |
| CCOC(=O)Cc1nnc(NC(=O)CSc2ccc(Cl)cc2)s1 | 9.14 |
| Cc1cccc(NC(=O)CN2CCN(CC(=O)Nc3ccc(-c4ccccc4)cc3)CC2)c1C | 7.53 |
| COC(=O)c1c(C(=O)c2ccc(Br)cc2)n(C)c2ccccc12 | 2.31 |
| COC(=O)c1cc(C(=O)NCC2CCCCC2)cc([N+](=O)[O-])c1 | 6.32 |
| COc1cc2[nH]c(=O)n(CCC(=O)N3CC=C(c4ccccc4)CC3)c(=O)c2cc1OC | 0.309 |
| COc1ccc(OC)c(C(C)NS(=O)(=O)c2cccs2)c1 (centres unmarked) | -2.19 |
| COc1ccc(NC(=O)N2CCCc3cccc(C)c32)cc1 | 1.06 |
| CC(C)CC(=O)N/C(N)=N/c1nc2ccccc2s1 | 13.4 |
| O=C(Nc1nnc(CCc2ccccc2)s1)c1ccccc1 | 11.9 |
| Cc1ccc(C2NC(=O)c3c(sc(C)c3C)N2)c(O)c1 (centres unmarked) | 3.84 |
| CC(C)[C@H](NC(=O)OC(C)(C)C)C(=O)N/N=C/c1ccc2nccnc2c1 | 5.51 |
| CCOc1ccc(/C=C2\SC(=S)N(CCCC(=O)NCCCN3CCOCC3)C2=O)cc1 | 14.5 |

| Structure (SMILES) | hERG current change (%, negative = inhibition) at 1uM [%] |
| --- | --- |
| O=C(COC(=O)c1oc2ccccc2c1COc1ccccc1)NCCN1C(=O)CSC1=O | -8.43 |
| O=C1CSC(c2cccc([N+](=O)[O-])c2)N1c1ccccc1F (centres unmarked) | 1.45 |
| O=S(=O)(NCC1CCCO1)c1cc(Br)c(Br)s1 (centres unmarked) | 0.898 |
| CC1(C)Cc2c(c(N3CCOCC3)nc3sc(C(N)=O)c(N)c23)CO1 | 2.15 |
| COc1ccc(C2C=C(c3ccc(F)cc3)NC(=S)N2)cc1OC (centres unmarked) | 5.17 |
| COCCNC(=O)c1c(CSc2ccccc2)noc1C(=O)NCc1ccccc1 | 11.3 |
| O=c1c2ccccc2c(C=Nc2cccc(O)c2)c(O)n1-c1ccc2c(c1)OCO2 | 14.1 |
| COc1cc(/C=C/C(=O)OC(C)C(=O)c2ccccc2)cc(OC)c1OC (centres unmarked) | 3.82 |
| COc1ccc(N(CC(=O)NCCC2=CCCCC2)S(C)(=O)=O)cc1 | -7.54 |
| CSc1ccccc1C(=O)N1CCN(c2cccc(Cl)c2)CC1 | 12.9 |
| COc1cc(C(=O)NCc2ccc(S(N)(=O)=O)cc2)ccc1OCC(=O)Nc1cccc(C(F)(F)F)c1 | 8.44 |
| CCOC(=O)C1=C(C)NC(C)=C(C(=O)OCC)C1C(=O)OCC(=O)NC | 5.88 |
| COc1cc([N+](=O)[O-])c(OC)cc1SCc1n[nH]c(=S)n1-c1ccc(F)cc1 | 7.12 |
| CCN(CC)CCOC(=O)C(c1ccccc1)c1ccccc1.Cl | -34.9 |
| COc1ccc(CCN(Cc2cc3cccc(C)c3[nH]c2=O)C(=O)NC2CCCCC2)cc1OC | -7.49 |
| O=C(/C=C/c1ccc(Cl)cc1)N(Cc1cccs1)C1CCS(=O)(=O)C1 (centres unmarked) | -3.56 |
| CCCCn1c(=O)c(-c2ccccc2)c(O)c2ccccc21 | 16.3 |
| CCCCn1nnnc1SCC(=O)Nc1sc2c(c1C#N)CCCC2 | 8.26 |
| N#Cc1cc(-c2ccc(Cl)cc2)cnc1Sc1ccc(F)cc1 | 7.98 |
| CN(C(=O)c1ccc(NC(=O)Cc2ccc(NC(=O)C3CCN(C(=O)C4CCCCC4)CC3)cc2)cc1)C1CC1 | 16.9 |
